# Laboratory results reported in PubChem BioAssay AID488969 (Vanderbilt High Throughput Screening Facility, 2010).
# The full ranking holds about 110,000 compounds; the median of “z-score” is about -0.1, and the highest 2% start at about 2. Some of the results follow. Calls of active or inactive are those of the source.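 Rule for the calls: active = z-score in the third read window above 3 or below -3; inactive = the rest.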
# Target: Metabotropic glutamate receptor 8 (Rattus norvegicus) (UniProt P70579)
# Chain of UniProt P70579 (P70579 whole entry, looked up): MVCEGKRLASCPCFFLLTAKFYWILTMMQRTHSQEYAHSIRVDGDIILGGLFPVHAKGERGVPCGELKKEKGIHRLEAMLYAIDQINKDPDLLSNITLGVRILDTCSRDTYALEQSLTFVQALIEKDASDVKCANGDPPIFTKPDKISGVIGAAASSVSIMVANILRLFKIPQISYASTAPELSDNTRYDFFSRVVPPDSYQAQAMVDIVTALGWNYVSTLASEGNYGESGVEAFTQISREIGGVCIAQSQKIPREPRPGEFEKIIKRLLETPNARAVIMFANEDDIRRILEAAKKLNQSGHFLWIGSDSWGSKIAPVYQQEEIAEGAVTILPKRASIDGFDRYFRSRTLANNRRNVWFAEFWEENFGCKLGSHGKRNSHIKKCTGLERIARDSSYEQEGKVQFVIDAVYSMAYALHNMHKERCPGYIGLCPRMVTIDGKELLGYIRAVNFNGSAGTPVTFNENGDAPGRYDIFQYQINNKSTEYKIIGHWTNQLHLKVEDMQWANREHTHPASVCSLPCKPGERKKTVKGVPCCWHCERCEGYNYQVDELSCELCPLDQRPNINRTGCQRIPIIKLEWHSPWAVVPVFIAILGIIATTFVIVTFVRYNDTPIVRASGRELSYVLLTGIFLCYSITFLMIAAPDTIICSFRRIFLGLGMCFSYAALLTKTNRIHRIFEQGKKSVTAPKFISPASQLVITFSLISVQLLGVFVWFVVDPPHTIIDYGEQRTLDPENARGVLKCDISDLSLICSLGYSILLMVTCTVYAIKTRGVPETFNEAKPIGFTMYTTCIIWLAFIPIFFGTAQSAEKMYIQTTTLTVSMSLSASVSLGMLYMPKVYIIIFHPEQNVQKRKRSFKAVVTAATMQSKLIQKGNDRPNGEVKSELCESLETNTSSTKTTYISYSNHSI
# Assay: mGluR8 Gi/Go-coupled signaling modulation – cell-based, rat, thallium flux, HTS, primary screen (AID 488969)
# Conditions: HEK293 rat mGluR8, GIRK (G protein-gated inwardly rectifying potassium channel) thallium flux, FluoZin2; at 10 µM; stronger effect = higher value; submaximal glutamate (EC20) added with thallium
row,SMILES,z-score
1,COCCNS(=O)(=O)c1ccc(SC)cc1,0.384
2,S=C(NCCc1ccccn1)Nc1cccc(Cl)c1,0.189
3,O=C(COc1ccccc1)c1cn(CC(=O)N2CCOCC2)c2ccccc12,-0.407
4,Cc1cc(C)n(-c2ccc(C(=O)NCc3cccs3)cc2)n1,0.0522
5,COc1ccc(-c2nnn(CC(=O)N3CCN(c4ccccc4OC)CC3)n2)cc1,-0.289
6,O=C(NCc1ccccc1)c1ccccc1OCC(=O)N1CCCCC1,-0.0625
7,Clc1cccc(Cl)c1CSc1nnc(CN2CCOCC2)n1-c1ccccc1,0.321
8,O=C1C=C(c2cccs2)C[C@H](c2ccccc2)[C@H]1n1nnc([N+](=O)[O-])n1,0.0163
9,O=C(Nc1ccc2c(c1)OCO2)c1ccncc1,0.114
10,COc1ccc(-c2nnn(Cc3nc(N)nc(N4CCOCC4)n3)n2)cc1OC,-0.0369
11,CCN(CC)c1ccc(N=Nc2nn(C)c(C)c2[N+](=O)[O-])cc1,-0.829
12,O=C1CC(c2ccccc2)Sc2nc(-c3ccccc3)c(-c3ccccc3)n21 (configuration not stated),0.0856
13,COc1ccccc1N1CCN(S(=O)(=O)c2cccs2)CC1,0.771
14,Cc1ccc(-n2c(SCC(=O)N3Cc4ccccc4CC3C(=O)O)nnc2-c2cccnc2)c(C)c1 (configuration not stated),-0.28
15,CCOC(=O)c1cc(-c2ccco2)nc2c1c(C)nn2-c1ccccc1,-0.0787
16,CCCCNC(=O)c1onc(CSc2ccccc2)c1C(=O)O,0.0319
17,COc1ccc(S(=O)(=O)Nc2cc(C)on2)cc1OC,0.223
18,Cc1cc2ncn(S(=O)(=O)c3ccc(S(=O)(=O)N4CCCCCC4)cc3)c2cc1C,-0.31
19,COc1cc(-n2c3nc4ccccc4nc3c3c(=O)n(Cc4ccco4)cnc32)cc(OC)c1OC,0.658
20,C=CCc1cc(/C=N/n2cnnc2)cc(OCC)c1O,0.000823
21,CNC(=O)CSc1nnc(-c2ccco2)n1-c1ccccc1OC,0.514
22,O=C(N/N=C/c1cc([N+](=O)[O-])ccc1O)c1ccc2c(c1)OCCO2,-0.00564

row,SMILES,z-score
1,Cc1cccc(C)c1NC(=O)C(NC(=O)c1ccccn1)c1ccccc1[N+](=O)[O-] (configuration not stated),0.95
2,CC(C)(C)c1ccc(C(=O)N2CCC(C(=O)NCc3ccco3)CC2)cc1,-0.417
3,CCOC(=O)c1cc(-c2ccccc2)sc1NC(=O)CC,0.0214
4,COc1cc(OC)c(NC(=O)Cn2cccc2)cc1Cl,0.35
5,CCN(CC)C(=O)CC(c1ccc(F)cc1)c1ccc(OC)cc1 (configuration not stated),-0.0671
6,O=C(c1cc(N2C(=O)C3C4CCC(C4)C3C2=O)ccc1Cl)N1CCN(c2ccccc2)CC1 (configuration not stated),-1.15
7,O=C(Nc1cccnc1)c1ccc(COCC(F)(F)F)cc1,0.122
8,O=C(Nc1ccccc1C(=O)NCc1ccccc1)c1ccco1,-0.398
9,CCCn1c(=O)[nH]c(=O)c2c1nc(-c1ccc(OC(F)F)c(OC)c1)n2CCOC,-0.472
10,CC(C)(C)OC(=O)N1CCC[C@H]1c1nnc(SCc2ccccc2Cl)o1,-0.184
11,CCCCSc1ncc(C(=O)OCC)c(N)n1,-0.0829
12,Cc1cc(SCC#N)n2nc(C)c(-c3ccccc3)c2n1,-0.478
13,O=C(Nc1ccc(Oc2cccc3ccccc23)cc1)c1ccco1,0.993
14,COc1ccc(OC)c(C2=Nn3c(nnc3-c3cccc(OC(C)C)c3)SC2)c1,-0.26
15,CC1CCc2nc(NC(=O)C3COc4ccccc4O3)sc2C1 (configuration not stated),0.408
16,CS(=O)(=O)N1CCN(Cc2ccc(C(F)(F)F)cc2)CC1,0.0896
17,COc1ccc(CNC(=O)C(NC(C)=O)C(=O)Nc2ccc(OC)cc2)cc1 (configuration not stated),-0.149
18,O=c1c2cc(Br)ccc2[nH]c(=S)n1Cc1cccnc1,1.87
19,O=C(CSc1nc(-c2cccs2)cc(C(F)(F)F)n1)Nc1cc(OCC(F)(F)C(F)F)cc([N+](=O)[O-])c1,-0.0314
20,O=c1[nH]c(=O)n(Cc2ccco2)c2c1C(C(F)(F)F)(C(F)(F)F)N=C(Cc1ccccc1)N2,-0.122
21,CCOC(=O)CSc1nc2ccccc2c(=O)n1CC,-0.267
22,Cc1nnc(C)c2c(C)n(C(C)c3ccccc3)c(C)c12 (configuration not stated),-0.326

row,SMILES,z-score
1,CC(=O)n1c2c(c3ccccc31)OC(N)=C(C#N)C2c1ccc(C(C)C)cc1 (configuration not stated),0.195
2,COCCCn1c(SCC(=O)Nc2nnc(C)s2)nnc1-c1ccoc1C,0.236
3,COc1ccc(C(=O)CC(=O)C(=O)NCCc2cccc(C)c2)cc1,active: 3.99
4,Cn1c(CNC(=O)c2ccco2)nnc1SCC(=O)N1c2ccccc2Sc2ccccc21,-0.312
5,Cc1ccc(C2=NC(C)(C)N=C2SCC(=O)Nc2ccc(Cl)cc2)cc1,-0.142
6,CC(=O)C1C(c2ccc(OC(F)F)cc2)NC(=O)NC1(O)C(F)(F)F (configuration not stated),-0.346
7,CCOc1cc(-n2ncc(C#N)c2N)nc(SC)n1,0.205
8,CC(C)CC(=O)c1c[nH]c(C(=O)NCCc2ccccn2)c1,-0.112
9,COc1ccccc1CNC(=O)CCC(=O)Nc1nnc(C)s1,-0.122
10,CCOC(=O)c1c(NC(=O)CN2CCCc3ccccc32)sc(C)c1CC,-0.409
11,CCCCn1c(S(=O)(=O)O)nc2ccccc21,-0.0451
12,CC1(C(=O)NC2CCCCCCC2)CCC(=O)N1CCN1CCOCC1 (configuration not stated),0.242
13,Cc1nnc(NC(=O)CSc2nnc(Cc3cccn3C)n2-c2ccccc2)s1,-0.55
14,Cc1nn(Cc2ccc(Cl)c(Cl)c2)c(C)c1NC(=O)c1cc(-c2ccc3c(c2)OCO3)on1,-1.04
15,O=C(/C(=N\Nc1ccc(Br)cc1)Sc1nnnn1-c1ccccc1)c1ccccc1,0.0937
16,COc1ccccc1NC(=O)C(Sc1ccccc1)c1ccccc1 (configuration not stated),0.792
17,Cc1nnc(NC(=O)c2ccc(Br)cc2)s1,-0.102
18,O=C(O)CCn1c(=S)oc2ccccc21,-0.181
19,CC(=O)Nc1ccc(S(=O)(=O)NC2(C(F)(F)F)C(=O)Nc3c2c(=O)[nH]c(=O)n3Cc2ccccc2)cc1 (configuration not stated),0.395
20,Cc1c(-c2nnnn2-c2ccc(F)cc2)cnc2cc3c(cc12)OCO3,0.0261
21,CCOC(=O)c1sc2nccc(N(C)C)c2c1N=CNOCc1ccccc1,-0.0223
22,Cc1cc(C)n(-c2ccn(Cc3ccc(Cl)cc3Cl)c(=O)n2)n1,-0.157

row,SMILES,z-score
1,COc1ccc(-c2nc3c(=O)n(C)c(=O)[nH]c3n2CCc2ccccc2)cc1,-0.516
2,Cc1ccc(C)c(-n2nnnc2SCC(=O)Nc2cccc(-c3nnc4n3CCCCC4)c2)c1,active: -3.95
3,CCn1cc(S(=O)(=O)CC(=O)Nc2ccc(C)cc2)c2ccccc21,-0.393
4,CCn1c(CNc2ccc(C)cc2)nnc1SCC(N)=O,0.124
5,COc1ccc(Cn2c(-c3ccc(OC)cc3)nc3ccccc32)cc1,-1.46
6,O=C(COC(=O)c1ccccc1C(=O)N1CCN(c2ccc(F)cc2)CC1)NCc1ccccc1,-0.352
7,Cc1ccc(N2C(=O)[C@@H]3[C@H](C2=O)C2c4ccccc4C=CN2[C@@H]3C(=O)c2ccco2)c(C)c1 (some centres not stated),0.293
8,Cc1ccccc1Oc1nc2c(C)cccn2c(=O)c1/C=C(\C#N)C(=O)Nc1c(C)n(C)n(-c2ccccc2)c1=O,-0.477
9,COc1ccccc1CNC(=O)CS(=O)Cc1nc(-c2ccccc2C)oc1C (configuration not stated),-0.598
10,Cc1ccc(NC(=O)C(OC(=O)c2ccc(C=O)cc2)c2ccccc2)cc1Cl (configuration not stated),0.187
11,COc1cc(C(O)P(=O)(OCC(C)C)OCC(C)C)cc(OC)c1OC (configuration not stated),-0.245
12,c1ccc(-c2ccc3c(c2)c2c4n3CCN=C4CCC2)cc1,0.505
13,Cc1ccc(-n2c(-c3cc(C)n(C)n3)n[nH]c2=S)cc1,-0.289
14,O=C(C(c1ccccc1)c1ccccc1)N1CCCc2ccccc21,0.0643
15,Cc1ccc(-c2cc(-c3ccccc3)c3c(N)c(S(C)(=O)=O)sc3n2)cc1,0.593
16,Cn1c(-c2c(N)n(-c3ccccc3)c3nc4ccccc4nc23)nc2ccccc21,0.268
17,Cc1occc1C(=O)N/N=C/c1cccs1,0.00925
18,CCOC(=O)CCc1c(C)c2ccc(OCC)c(C)c2oc1=O,-0.544
19,COc1cc(Cl)c(C)cc1NC(=O)COC(=O)c1cnc(C)cn1,-1.27
20,O=C(Cn1c(=O)oc2ccccc21)N(Cc1ccccc1)C1CCS(=O)(=O)C1 (configuration not stated),-0.0425
21,CCc1ccc(/C=N/NC(=O)c2cc(C)on2)s1,-0.145
22,CCOc1ccc(N(CC(=O)NCC2CCCO2)S(=O)(=O)c2ccc(OC)c(OC)c2)cc1 (configuration not stated),0.0613

row,SMILES,z-score
1,Cc1c(CN(C)C)c2c(n1C)C(=O)c1ccc(Br)cc1-2,-0.258
2,CC(C)(C)NC(=O)NC(=O)CN1CCN(c2ncc(C(F)(F)F)cc2Cl)CC1,-0.519
3,CCCCNC(=O)CCc1c(C)nc2nc(-c3cc(OC)cc(OC)c3)nn2c1C,-0.28
4,Cc1ccc(NC(=S)NC(NC(=O)N(C)C)C(Cl)(Cl)Cl)cc1 (configuration not stated),1.47
5,CCOc1ccc(N=c2oc3cc(O)ccc3cc2C(=O)NCC2CCCO2)cc1 (configuration not stated),-0.319
6,O=S(=O)(NC1CCCCC1Oc1ccccc1)c1ccc(Cl)cc1 (configuration not stated),-0.762
7,CCOc1cc(/C=N\NC(=O)c2ccc(NC(=O)CC)cc2)ccc1OC(=O)c1ccccc1,-0.103
8,O=C(/C=C/c1ccc(Cl)cc1)NCCc1ccccc1,-0.176
9,O=C(Nc1ccc(Cl)cc1)[C@@H]1[C@@H]2C(=O)N(c3ccc(Cl)cc3)C(=O)[C@@H]2[C@H]2C=CC=NN21,-0.51
10,c1ccc2c(-c3nn[nH]n3)cccc2c1,-0.719
11,O=C(CS(=O)CC(=O)N(CC(=O)NC1CCCC1)C1CCCC1)Nc1ccc(F)cc1 (configuration not stated),-0.488
12,Cc1ccc(C(=O)OCC(=O)Nc2ncc(C(F)(F)F)cc2Cl)cc1NC(=O)c1ccco1,0.575
13,CC(C)CCNC(=O)C1CC(c2cccc([N+](=O)[O-])c2)=NO1 (configuration not stated),0.109
14,Cc1cccc(Nc2nnc(SCc3cn4ccsc4n3)s2)c1,0.254
15,CCN1CCN(C(=S)Nc2ccc(Cl)cc2)CC1,-0.046
16,C=C(C)CNC(=S)Nc1cccc2cnccc12,active: 3.1
17,COCCn1c(SCC(=O)N2CCCc3ccccc32)nnc1-c1ccco1,0.326
18,COC(=O)c1ccccc1NC(=O)C1CC=CCC1C(=O)O (configuration not stated),0.113
19,O=C(CSc1nc2ccc([N+](=O)[O-])cc2[nH]1)NCCc1ccccc1,-0.133
